No constants are given. Whether binding was seen depends on the method and setting. For some of these results: Binding seen in cells or lysates may run through a third protein. Some binding calls cover weakened binding; strength is not graded here. For some of these results: Tags and fused reporters may be left off the sequences shown.
T1: Vam3p (S. cerevisiae (endogenous in strains SSY4 and SCY18)) (UniProt Q12241)
T1 sequence: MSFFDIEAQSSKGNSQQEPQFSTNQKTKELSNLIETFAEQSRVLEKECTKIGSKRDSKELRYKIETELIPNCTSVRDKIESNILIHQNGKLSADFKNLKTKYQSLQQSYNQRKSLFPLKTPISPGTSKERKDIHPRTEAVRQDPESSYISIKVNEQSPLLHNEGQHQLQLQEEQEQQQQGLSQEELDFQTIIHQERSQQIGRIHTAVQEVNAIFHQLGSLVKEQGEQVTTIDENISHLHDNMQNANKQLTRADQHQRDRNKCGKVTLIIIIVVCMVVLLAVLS

Chains of the proteins cited; added tags and fusions are not shown. Lines headed by an entry give the natural chain unless they say otherwise; changes in a name come on top. A line that says so, or that is headed by a name, gives the form on record, which may keep a tag or linker. Residues count along the entry.
UniProt Q08144: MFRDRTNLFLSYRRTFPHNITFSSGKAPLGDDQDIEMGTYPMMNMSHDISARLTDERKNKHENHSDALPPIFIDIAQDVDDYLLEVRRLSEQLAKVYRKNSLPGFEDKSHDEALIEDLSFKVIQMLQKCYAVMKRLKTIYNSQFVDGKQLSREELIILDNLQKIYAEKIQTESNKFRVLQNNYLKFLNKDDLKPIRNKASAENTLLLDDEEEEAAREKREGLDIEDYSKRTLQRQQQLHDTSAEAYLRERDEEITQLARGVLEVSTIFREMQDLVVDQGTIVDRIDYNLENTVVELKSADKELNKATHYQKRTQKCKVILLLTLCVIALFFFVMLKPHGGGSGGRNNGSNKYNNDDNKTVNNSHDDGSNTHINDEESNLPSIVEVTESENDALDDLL
UniProt P32854: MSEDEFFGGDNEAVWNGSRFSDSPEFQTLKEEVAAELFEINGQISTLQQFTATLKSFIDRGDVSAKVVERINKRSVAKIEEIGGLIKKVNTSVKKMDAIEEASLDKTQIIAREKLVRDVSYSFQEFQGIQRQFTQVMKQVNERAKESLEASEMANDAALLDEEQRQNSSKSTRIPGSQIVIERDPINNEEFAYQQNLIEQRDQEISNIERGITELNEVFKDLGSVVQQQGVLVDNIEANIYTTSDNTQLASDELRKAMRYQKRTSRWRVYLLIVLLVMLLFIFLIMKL
Habc domain of Pep12p (AA 1-200) fused to the DNA-binding domain of LexA: residues 1-200 of P32854
UniProt Q04338: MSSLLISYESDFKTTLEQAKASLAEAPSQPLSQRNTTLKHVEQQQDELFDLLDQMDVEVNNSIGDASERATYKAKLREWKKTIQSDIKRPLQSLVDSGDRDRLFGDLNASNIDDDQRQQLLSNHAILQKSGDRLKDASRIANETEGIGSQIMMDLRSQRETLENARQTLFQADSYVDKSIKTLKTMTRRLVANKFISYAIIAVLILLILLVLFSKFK
Vti1p without its transmembrane domain (AA 1-188) fused to the DNA-binding domain of LexA: residues 1-188 of Q04338
Habc domain of Vti1p (AA 1-115) fused to the DNA-binding domain of LexA: residues 1-115 of Q04338
SNARE motif of Vti1p (AA 116-188) fused to the DNA-binding domain of LexA: residues 116-188 of Q04338

B1: Syn8p (protein, UniProt P31377 1-255)
chain: MDVLKLGYELDQLSDLVEERTRLVSVLKLAPTSNDNVTLKRQLGSILELLQKCAPNDELISRYNTILDKIPDTAVDKELYRFQQQVARNTDEVSKESLKKVRFKNDDELTVMYKDDDEQDEESPLPSTHTPYKDEPLQSQLQSQSQPQPPQPMVSNQELFINQQQQLLEQDSHLGALSQSIGRTHDISLDLNNEIVSQNDSLLVDLENLIDNNGRNLNRASRSMHGFNNSRFKDNGNCVIILVLIVVLLLLLLVL
B2: Vam7p (protein, UniProt P32912 1-316)
chain: MAANSVGKMSEKLRIKVDDVKINPKYVLYGVSTPNKRLYKRYSEFWKLKTRLERDVGSTIPYDFPEKPGVLDRRWQRRYDDPEMIDERRIGLERFLNELYNDRFDSRWRDTKIAQDFLQLSKPNVSQEKSQQHLETADEVGWDEMIRDIKLDLDKESDGTPSVRGALRARTKLHKLRERLEQDVQKKSLPSTEVTRRAALLRSLLKECDDIGTANIAQDRGRLLGVATSDNSSTTEVQGRTNNDLQQGQMQMVRDQEQELVALHRIIQAQRGLALEMNEELQTQNELLTALEDDVDNTGRRLQIANKKARHFNNSA
B3: Nyv1p (protein, UniProt Q12255 1-253)
chain: MKRFNVSYVEVIKNGETISSCFQPFQKNENYGTITSANEQITPVIFHNLIMDMVLPKVVPIKGNKVTKMSMNLIDGFDCFYSTDDHDPKTVYVCFTLVDMPKILPIRILSGLQEYESNATNELLSSHVGQILDSFHEELVEYRNQTLNSSGNGQSSNGNGQNTISDIGDATEDQIKDVIQIMNDNIDKFLERQERVSLLVDKTSQLNSSSNKFRRKAVNIKEIMWWQKVKNITLLTFTIILFVSAAFMFFYLW
B4: full-length Vps51p fused to the VP16 activation domain (protein, UniProt P36116 1-164)
chain: MAEQISHKKSLRVSSLNKDRRLLLREFYNLENEPNKGRQEARIGEKASEAHSGEEQVTDVNIDTEANTEKPVKDDELSATEEDLKEGSEDAEEEIKNLPFKRLVQIHNKLLGKETETNNSIKNTIYENYYDLIKVNDLLKEITNANEDQINKLKQTVESLIKEL

Columns and labels:
[1] = target: T1, Vam3p (S. cerevisiae (endogenous in strains SSY4 and SCY18)); experiment: co-IP; antiserum against Pep12p or Vam3p or monoclonal anti-c-myc 9E10 cross-linked to protein G-sepharose; spheroplasts of wild type (SSY4) or vti1-3 (SCY18) cells incubated 1 h at 24°C (wild type also at 37°C) before lysis in 20 mM HEPES-KOH pH 7.0, 100 mM KCl, 2 mM EDTA, 0.5% Triton X-100; beads overnight at 4°C; immunoblotting
[2] = target: myc-Tlg2p (S. cerevisiae) (UniProt Q08144); experiment: as above
[3] = target: Pep12p (S. cerevisiae (endogenous in strains SSY4 and SCY18)) (UniProt P32854); experiment: as above
[4] = target: Pep12p (S. cerevisiae (endogenous in strains SSY4 and SCY18)) (UniProt P32854); experiment: co-IP; as a1, but spheroplasts of vti1-3 cells (SCY18) incubated 1 h at 37°C (restrictive temperature) before lysis; blots quantified, coprecipitated Vti1p normalized to the precipitated Qa-SNARE, Vti1p isolated at 24°C set to 100%
[5] = target: Habc domain of Pep12p (AA 1-200) fused to the DNA-binding domain of LexA (S. cerevisiae) (UniProt P32854); experiment: two-hybrid; L40 cells; LexA DNA-binding domain fusions (pLexN) as bait, Vps51p in pVP16-3 as prey; growth on minimal medium lacking uracil, lysine, tryptophan, leucine and histidine with 20 mM 3-aminotriazole
[6] = target: Habc domain of Vti1p (AA 1-115) fused to the DNA-binding domain of LexA (S. cerevisiae) (UniProt Q04338); experiment: as above
[7] = target: SNARE motif of Vti1p (AA 116-188) fused to the DNA-binding domain of LexA (S. cerevisiae) (UniProt Q04338); experiment: as above
[8] = target: Vti1p without its transmembrane domain (AA 1-188) fused to the DNA-binding domain of LexA (S. cerevisiae) (UniProt Q04338); experiment: as above

Molecule | binding [1] | binding [2] | binding [3] | further results
vti1-3p (Vti1p Q29R W79R) (from UniProt Q04338 1-217) | binds | binds | – | –
Vti1p (wild type) (from UniProt Q04338 1-217) | binds | binds | binds | –
B1 | – | – | binds | binding [4]: no binding (condition: vti1-3 cells after 1 h at 37°C)
B2 | binds | – | – | –
B3 | binds weakly | – | – | –
B4 | – | – | – | binding [5]: no binding; binding [6]: no binding; binding [7]: no binding; binding [8]: no binding

— paper PMC3680383
